# Test results: the supplement of paper PMC7826260
# Some of the results follow. Each Rep nickase domain was tested in vitro on the same pool of single strands (1 h at 37 °C, 3 µM enzyme); the outer parts of the 90-letter strands are left off. Numbers give uncut DNA relative to the enzyme-free pool, as log2; strong cutting gives strongly negative numbers. There is no active / inactive call. Shares of all reads are compared, so uncut sequences can rise above 0 when many others are cut.
# Assays:
# Assay in all cases: uncleaved DNA left, log2 of reads against the no-enzyme library (log2 ratio); higher = less cleavage (more negative = more Rep cleavage of the k-mer); sequences stand for … in CTCGTCCG…ACCGGAGA
# [1] = system: T1, Rep nickase domain of Muscovy duck circovirus
# T1 sequence (residues 1-111, tag not shown): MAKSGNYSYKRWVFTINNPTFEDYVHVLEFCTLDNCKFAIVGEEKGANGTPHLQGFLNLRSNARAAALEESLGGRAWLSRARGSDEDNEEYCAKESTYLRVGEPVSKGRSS
# Description: (§1)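 A pool of 90-nt single-stranded DNAs with seven random bases just before the constant AC of the nick site (name = the seven bases) was cut by 3 µM recombinant His6-SUMO-tagged Rep nickase domain (300 nM DNA, 50 mM HEPES pH 8.0, 50 mM NaCl, 1 mM MnCl2, 1 h, 37 °C, three replicates). Uncut DNA was amplified and sequenced.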
# [2] = system: T2, Rep nickase domain of banana bunchy top virus
# T2 sequence (residues 1-94, tag not shown): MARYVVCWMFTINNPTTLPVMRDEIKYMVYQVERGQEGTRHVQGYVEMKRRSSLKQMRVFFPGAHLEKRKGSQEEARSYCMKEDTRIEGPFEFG
# Description: as §1
# [3] = system: T3, Rep nickase domain of cabbage leaf curl virus
# T3 sequence (residues 1-116, tag not shown): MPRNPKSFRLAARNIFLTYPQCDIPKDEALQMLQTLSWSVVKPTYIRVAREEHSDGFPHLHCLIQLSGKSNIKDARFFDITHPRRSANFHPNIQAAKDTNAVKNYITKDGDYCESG
# Description: as §1
# [4] = system: T4, Rep nickase domain of chickpea chlorotic dwarf virus
# T4 sequence (residues 1-124, tag not shown): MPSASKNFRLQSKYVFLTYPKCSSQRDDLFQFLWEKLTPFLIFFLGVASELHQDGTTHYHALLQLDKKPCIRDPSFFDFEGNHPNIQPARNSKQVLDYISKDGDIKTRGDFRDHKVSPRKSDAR
# Description: as §1
# [5] = system: T5, Rep nickase domain of faba bean necrotic yellows virus
# T5 sequence (residues 1-98, tag not shown): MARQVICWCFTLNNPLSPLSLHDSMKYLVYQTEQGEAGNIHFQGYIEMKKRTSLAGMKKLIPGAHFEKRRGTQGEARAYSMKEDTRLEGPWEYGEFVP
# Description: as §1
# [6] = system: T6, Rep nickase domain of maize striate mosaic virus
# T6 sequence (residues 1-117, tag not shown): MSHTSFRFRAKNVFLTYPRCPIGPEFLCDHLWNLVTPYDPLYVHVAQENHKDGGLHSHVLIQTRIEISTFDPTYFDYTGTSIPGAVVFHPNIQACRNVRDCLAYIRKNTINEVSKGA
# Description: as §1
# [7] = system: T7, Rep nickase domain of porcine circovirus 2
# T7 sequence (residues 2-116, tag not shown): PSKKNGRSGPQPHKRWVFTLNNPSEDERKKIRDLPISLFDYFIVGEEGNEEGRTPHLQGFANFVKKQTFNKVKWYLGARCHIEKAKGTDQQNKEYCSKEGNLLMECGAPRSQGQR
# Description: as §1
# [8] = system: T8, Rep nickase domain of tomato golden mosaic virus
# T8 sequence (residues 1-124, tag not shown): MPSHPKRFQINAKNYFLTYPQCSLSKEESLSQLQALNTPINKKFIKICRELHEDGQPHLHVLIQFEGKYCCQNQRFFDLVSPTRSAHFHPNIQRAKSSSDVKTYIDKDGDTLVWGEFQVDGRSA
# Description: as §1
# [9] = system: T9, Rep nickase domain of tomato yellow leaf curl virus
# T9 sequence (residues 1-136, tag not shown): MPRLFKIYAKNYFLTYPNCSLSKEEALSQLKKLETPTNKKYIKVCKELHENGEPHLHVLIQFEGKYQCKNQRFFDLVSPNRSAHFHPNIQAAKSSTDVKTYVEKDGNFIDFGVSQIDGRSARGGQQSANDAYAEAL
# Description: as §1
# [10] = system: T10, Rep nickase domain of wheat dwarf virus
# T10 sequence (residues 1-137, tag not shown): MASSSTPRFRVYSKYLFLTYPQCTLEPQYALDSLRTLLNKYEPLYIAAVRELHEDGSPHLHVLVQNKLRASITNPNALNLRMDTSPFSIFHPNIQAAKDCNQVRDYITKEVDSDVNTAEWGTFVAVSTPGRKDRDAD
# Description: as §1
Sequence,uncleaved DNA left (log2) [1],uncleaved DNA left (log2) [2],uncleaved DNA left (log2) [3],uncleaved DNA left (log2) [4],uncleaved DNA left (log2) [5],uncleaved DNA left (log2) [6],uncleaved DNA left (log2) [7],uncleaved DNA left (log2) [8],uncleaved DNA left (log2) [9],uncleaved DNA left (log2) [10]
GCTGTTA,-0.079,-0.0863,-0.112,0.169,-0.154,0.833,-0.18,-0.00908,-0.115,-0.133
CTGGAGG,0.128,0.0323,0.399,0.942,0.0261,0.722,0.0938,0.1,0.0101,0.0116
CCTTAAA,0.0451,0.00818,-0.0269,-0.294,0.141,-0.72,0.0214,-0.0467,0.0734,0.113
AGTCCCC,-0.122,-0.0391,0.596,1.09,-0.037,1.27,-0.788,0.00928,0.00704,0.0581
GTAAAGA,0.0756,0.136,0.298,0.842,0.071,0.848,0.177,0.113,0.0841,0.138
ACGCGTG,-0.0981,-0.111,-0.65,-0.566,-0.0763,-0.695,0.0775,-0.115,-0.00189,-0.178
CATCTTG,-0.189,-0.212,-0.814,-1.76,-0.221,-1.25,0.072,-0.212,-0.0966,-0.175
AAATGGT,-0.274,-0.0215,-3.63,-2.75,-0.0147,-0.412,-3.6,-1.47,-0.0627,-1.47
TGGAGAA,-0.0655,-0.101,0.454,0.999,-0.126,1.03,0.0746,-0.0336,-0.0704,0.0458
CACCAGC,0.0609,0.101,-0.518,-0.575,0.0558,-0.971,0.00679,-0.0222,0.14,0.00875
TGGTCTG,0.0489,0.00847,0.133,0.821,0.0819,1.24,0.0328,-0.0348,-0.0279,0.0552
CGACAAC,-0.0624,0.0385,-0.0372,0.112,-0.0889,0.648,-0.00254,-0.0915,-0.0748,0.0515
GTCTTAC,-0.0735,0.131,0.276,0.544,-0.0767,1.64,-0.388,0.0327,0.0326,0.0713
TCTTGCC,0.0217,-0.0705,-0.691,-0.685,0.0538,-1.25,0.0746,-0.0504,-0.0267,-0.0962
GACGAGT,-0.0917,0.0146,0.17,0.58,-0.0507,0.551,-0.178,-0.0743,-0.0412,-0.0384
GGGGGTT,-0.0878,0.0407,0.776,1.69,0.0619,2.16,0.0803,-0.0316,-0.0497,0.0362
GCCCAAC,-0.042,0.0372,-0.052,-0.268,-0.0993,0.0274,0.032,-0.102,-0.0692,0.0411
CGGGACG,0.071,0.148,0.792,1.66,0.0642,1.79,0.275,0.109,0.0821,0.134
CAACTCC,-0.0865,0.0339,-0.222,-0.561,-0.0759,0.546,0.000741,-0.0203,-0.0217,0.025
ATCGACG,-0.0343,0.0193,-0.285,-0.00245,0.00811,0.027,0.154,0.102,-0.168,-0.00424
AAAGCAG,-0.0413,-0.107,-0.147,0.0848,-0.00943,-0.449,0.148,-0.0251,-0.131,-0.0624
TACATTA,-0.0423,0.0376,-0.223,-2.29,0.0315,-0.717,-0.0967,0.047,-0.0142,-0.0362
CGCGGCA,0.0553,0.0311,-0.0991,-0.0322,0.0177,-0.261,-0.0965,-0.0341,0.121,-0.0216
AGCCCAA,-0.0401,-0.0694,0.504,1.1,-0.0321,1.12,-0.0273,-0.123,0.0266,0.143
TGATAAC,-0.0612,0.0442,0.0263,-0.326,0.0216,0.994,-0.00736,0.0698,-0.0353,0.0219
TAGTTCC,-0.0412,-0.0293,0.0987,-0.325,-0.225,0.36,-3.17,-0.154,0.0757,-0.0164
CATGTAG,0.0652,-0.0922,-0.555,0.362,0.0341,-0.604,0.0169,0.029,0.068,-0.0355
GGTGGGT,0.0644,0.0695,0.576,1.31,0.0729,1.79,0.148,0.0538,0.102,0.0456
TCTCCAG,-0.0684,-0.193,-0.553,-0.859,-0.033,-1.16,0.126,-0.131,-0.0827,-0.133
CATTTAC,0.0849,-0.0163,-0.27,-2.16,0.0509,-0.907,-0.0884,-0.0658,0.0697,-0.00893
